Assay [1] addresses T1, human 4-1BB on cells (activated human T cells; HeLa-hu4-1BB-NFκB-luc clone 26; Jurkat-hu4-1BB-NFκB-luc2) (human, UniProt Q07011 24-255).
T1 construct: also called CD137; cell-expressed 4-1BB
Nature of the assay: flow cytometry on activated human CD4+ T cells (CD4 binding).

Assay [2] deals with T1, human 4-1BB on cells (activated human T …). The experiment in a line: cell-based or functional assay.
Assay [3] has the same target. The experiment in a line: flow cytometry on activated human CD8+ T cells (CD8 binding). (In general: In flow cytometry, cells or beads pass a laser one at a time.)
Assay [4] addresses T2, human CD19 on cells (primary human B cells; WSU-DLCL2) (human, UniProt P15391 20-556).
T2 construct: also called CD19+ human B cells; CD19+ WSU tumor cells
T2 sequence: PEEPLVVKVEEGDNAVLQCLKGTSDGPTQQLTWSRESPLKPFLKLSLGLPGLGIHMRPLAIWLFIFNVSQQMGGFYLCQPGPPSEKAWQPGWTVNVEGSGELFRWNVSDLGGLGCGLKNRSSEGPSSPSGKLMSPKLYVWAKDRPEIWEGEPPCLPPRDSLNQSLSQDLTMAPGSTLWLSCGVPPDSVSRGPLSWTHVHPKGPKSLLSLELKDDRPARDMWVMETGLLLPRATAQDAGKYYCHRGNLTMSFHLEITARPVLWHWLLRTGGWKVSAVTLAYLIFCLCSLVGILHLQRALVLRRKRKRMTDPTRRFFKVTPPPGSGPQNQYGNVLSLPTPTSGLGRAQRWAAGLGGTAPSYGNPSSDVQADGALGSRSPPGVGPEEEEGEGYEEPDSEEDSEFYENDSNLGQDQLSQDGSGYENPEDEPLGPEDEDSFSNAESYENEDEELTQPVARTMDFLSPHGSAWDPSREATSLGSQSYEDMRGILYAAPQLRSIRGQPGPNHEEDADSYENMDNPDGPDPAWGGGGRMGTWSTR
Nature of the assay: flow cytometry on WSU-DLCL2 cells (WSU binding).

The target of assay [5] is T2, human CD19 on cells (primary human B …). The experiment in a line: flow cytometry on primary human B cells (B cell binding).

The record followed here is US20230045262A1 (Hoffmann-La Roche, published 2023).

Sequence of UniProt Q07011 (Q07011 24-255 limits assumed): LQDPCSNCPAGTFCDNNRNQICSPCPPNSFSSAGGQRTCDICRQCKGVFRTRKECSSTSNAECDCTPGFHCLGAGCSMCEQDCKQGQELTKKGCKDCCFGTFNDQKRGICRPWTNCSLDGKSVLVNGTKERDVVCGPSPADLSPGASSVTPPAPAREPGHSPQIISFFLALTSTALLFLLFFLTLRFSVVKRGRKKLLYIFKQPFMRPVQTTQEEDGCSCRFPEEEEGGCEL

B1: CD19(2B11)×4-1BBL (other)
chain 1: QVQLVQSGAEVKKPGASVKVSCKASGYTFTDYIMHWVRQAPGQGLEWMGYINPYNDGSKYTEKFQGRVTMTSDTSISTAYMELSRLRSDDTAVYYCARGTYYYGPQLFDYWGQGTTVTVSS
chain 2: DIVMTQTPLSLSVTPGQPASISCKSSQSLETSTGTTYLNWYLQKPGQSPQLLIYRVSKRFSGVPDRFSGSGSGTDFTLKISRVEAEDVGVYYCLQLLEDPYTFGQGTKLEIK
chain 3: [about 200 residues not shown]
Broadly, the EC50 is the midpoint of the concentration-response curve. High values mean lower potency in that assay, low ones higher potency in that assay. Regarding B1, the EC50 was 0.37 nM in assay [1], 0.9 nM in assay [3], 0.3 nM in assay [4] and 0.37 nM in assay [5]. In assay [2], the “EC50 of IFN-γ production by activated human PBMCs (ELISA)” value stood at 0.03 nM.
